Test results taken from PubChem BioAssay AID2546 (National Center for Advancing Translational Sciences (NCATS), 2010).
Several values for one entry are separate records, joined by “and”; a condition that tells them apart may be missing. Identical values can stand only once. Among all 310,000 compounds or so, about 11,000 (3.5%) were called active. The inconclusive results got no clear call from the source; some entries with a clear call stand among them for comparison. The call rests on the fitted dose curve; in most records, active means well fitted inhibition curve with a large enough effect; inconclusive means small, poorly fitted or top-dose-only effect, or effect the other way; inactive means flat fitted curve, though single readings scatter. Potencies of inconclusive entries are left out as doubtful fits.
Potency means the concentration at half of the fitted maximal effect; tags describe the fitted curve by direction and shape.

Experiment: VP16 counterscreen qHTS for inhibitors of ROR gamma transcriptional activity;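 further: Gal4-VP16 expression switched on by copper sulfate through the metallothionein promoter; nearly all actives have a fitted effect of over 50% in size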
Conditions: Drosophila S2 Gal4-VP16 UAS-luciferase, luminescence, 20 h; series mostly up to 53.6 µM
In the case of `O=C(Nc1ncc([N+](=O)[O-])s1)C1CCN(S(=O)(=O)c2cnc[nH]2)CC1`, the Potency is reported as inconclusive [inhibitor, partial curve].
In the case of `COc1ccc(NCc2nnc(SCC(=O)c3ccc(OC)cc3)n2C)cc1`, the Potency is reported as inconclusive [inhibitor, single point].
With `COc1cccc(C(=O)NC(=S)Nc2ccc([N+](=O)[O-])cc2C)c1` the Potency was inconclusive [inhibitor, partial curve].
For `O=C(c1ccccc1)N1N=C(c2ccccc2)CC1c1ccccc1O` (stereo not drawn), the Potency was active: 3.98 µM.
In the case of `O=S(=O)(NCCC1CC1(Cl)Cl)c1ccc(Cl)cc1` (stereo not drawn), the Potency is reported as inconclusive [inhibitor, partial curve].
For `Cn1c(-c2ccccc2)cc2c3no[n+]([O-])c3ccc21`, the Potency was inconclusive [inhibitor, single point].
With `Cn1c(CNC(=O)CNS(=O)(=O)c2ccc(Br)cc2)cc(=O)n(C)c1=O` the Potency was “inactive”.
For `CCc1cccc(Nc2c([N+](=O)[O-])cc(C(=O)N3CC(=O)Nc4ccccc43)cc2[N+](=O)[O-])c1`, the Potency was “inactive”.
For `CN1CCN(C(=S)NC(=O)c2ccccc2Br)CC1`, the Potency was active: 11.2 µM.
In the case of `CCc1ccc(CNC(=O)C2CCN(c3nnc(C)c4c(C)n(-c5ccc(C)cc5)nc34)CC2)cc1`, the Potency is reported as inconclusive [inhibitor, single point].
In the case of `Cc1cc(/C=C2\Cc3ccccc3C2=O)c(C)n1-c1ccccc1`, the Potency is reported as inconclusive [inhibitor, single point].
With `Cn1cccc1/C=N/n1c(-c2ccc(C(C)(C)C)cc2)n[nH]c1=S` the Potency was inconclusive [inhibitor, partial curve].
In the case of `CC(C)(Oc1ccc(Cl)cc1)C(=O)NCc1ccco1`, the Potency is reported as inconclusive [inhibitor, single point].
In the case of `CN(C)c1ccc(N/C=C/C(=O)c2ccc(F)cc2)cc1`, the Potency is reported as inconclusive [inhibitor, single point].
With `COc1ccc(C(=O)c2coc3c2C(=O)C(=O)c2ccccc2-3)cc1` the Potency was inconclusive [inhibitor, single point].
In the case of `Oc1[nH]c2ccc(Br)cc2c1N=Nc1ccc(C(F)(F)F)cn1`, the Potency is reported as inconclusive [inhibitor, full curve, poor fit].
With `O=C(O)/C=C/C(=O)NC1CC1` the Potency was “inactive”.
For `CC(C)(CC(=O)OCC(=O)Nc1ccccc1F)CC1=NS(=O)(=O)c2ccccc2N1`, the Potency was “inactive”.
In the case of `Cc1ccc(/C=N/NC(=O)c2ccc(N(C)S(=O)(=O)c3ccccc3)cc2)cc1`, the Potency is reported as inconclusive [inhibitor, single point].
In the case of `O=C(NCC1CCCO1)c1cc(-c2ccc(Cl)cc2Cl)on1` (stereo not drawn), the Potency is reported as inconclusive [inhibitor, single point].
For `COc1ccc(N(CC(=O)Nc2cccc(N(C)S(C)(=O)=O)c2)S(=O)(=O)c2ccc(C)cc2)cc1`, the Potency was “inactive”.
With `O=C(Nc1nc2c(F)cccc2s1)C1CC1` the Potency was inconclusive [inhibitor, full curve, poor fit].
For `O=C(NCc1ccccc1)C1=C[C@@H](c2ccccc2)C[C@@H](OCc2ccc(CO)cc2)O1`, the Potency was “inactive”.
With `O=C(NCCSCc1ccco1)Nc1cccc(Cl)c1` the Potency was inconclusive [activator, full curve, poor fit].
With `CCN(CC(=O)Nc1cccc(OC)c1)c1ncnc2sc(C)c(C)c12` the Potency was inconclusive [inhibitor, single point].
With `COC(=O)c1ccc(CSc2nc3ccccc3o2)cc1` the Potency was inconclusive [inhibitor, single point].
In the case of `COc1ccc(C(=O)Nc2cccc(C(=O)N/N=C/c3ccc(OC)cc3OC)c2)cc1`, the Potency is reported as active: 14.1 µM.
With `Cc1cc(C(=O)Nc2ccc(OCc3ccccc3)cc2)c(C)o1` the Potency was inconclusive [inhibitor, partial curve, poor fit].
In the case of `O=C(N/N=C/c1ccccc1OC(=O)c1ccc2c(c1)OCO2)c1ccccc1`, the Potency is reported as inconclusive [inhibitor, single point].
For `COc1ccc2nc(N=Nc3ccc(N(C)C)cc3)sc2c1`, the Potency was active: 1.41 µM.
In the case of `CCC1S/C(=N/N=C/c2cccs2)NC1=O` (stereo not drawn), the Potency is reported as active: 3.98 µM.
In the case of `CC(=O)c1c(C)[nH]c(C(=O)OCc2ccc(F)cc2Cl)c1C`, the Potency is reported as inconclusive [inhibitor, single point].
For `O=C(Nc1cc(Cl)ccc1-n1cncn1)c1ccc([N+](=O)[O-])s1`, the Potency was inconclusive [inhibitor, single point].
With `CCOC(=O)c1cccc(NC(=O)c2cc3ccccc3o2)c1` the Potency was inconclusive [inhibitor, single point].
For `CC1CCC(NC(=O)c2cnccn2)CC1` (stereo not drawn), the Potency was “inactive”.
With `O=C(N/N=C/c1cc([N+](=O)[O-])ccc1O)c1cccc2ccccc12` the Potency was active: 2.24 µM.
With `Cn1cc(CN2CCCC(CNC(=O)c3ccc4c(c3)OCO4)C2)c2ccccc21` (stereo not drawn) the Potency was “inactive”.
In the case of `CCc1ccc(CN(C)Cc2nc(Cc3cccc(C(F)(F)F)c3)no2)nc1`, the Potency is reported as inconclusive [inhibitor, single point].
With `Cc1c(C(=O)N2CCCCC2)c(S(=O)(=O)N2CCN(c3ccccc3F)CC2)c(C)n1C` the Potency was “inactive”.
For `CS(=O)c1ccccc1-c1nc(-c2cccc(Cl)c2)no1` (stereo not drawn), the Potency was “inactive”.
In the case of `CC(C)Oc1cccc(C(=O)NC(=S)Nc2ccc(N3CCN(C)CC3)cc2)c1`, the Potency is reported as inconclusive [inhibitor, single point].
In the case of `O=[N+]([O-])c1ccc(N2CCN(c3ccccc3Cl)CC2)cn1`, the Potency is reported as inconclusive [activator, single point].
For `Cc1cccc(CN2C(=O)/C(=C\c3ccc(C(=O)NCCCN4CCN(C)CC4)cc3)Oc3ccccc32)c1`, the Potency was inconclusive [inhibitor, single point].
With `CCN1N=C(c2cc(Cl)sc2Cl)CSC1=O` the Potency was inconclusive [inhibitor, single point].
In the case of `COc1ccc(OCC(=O)Nc2ccc(N3CCN(C(=O)c4ccccc4)CC3)c(Cl)c2)cc1`, the Potency is reported as inconclusive [inhibitor, single point].
In the case of `Cn1c2c(c(=O)[nH]c1=O)C(c1ccc(O)cc1)C1=C(N2)c2ccccc2C1=O` (stereo not drawn), the Potency is reported as “inactive”.
For `Cc1ccccc1-c1noc(N)c1C#N`, the Potency was inconclusive [inhibitor, single point].
For `Cc1ccccc1Oc1ccc(NC(=O)C2CC=CCC2C(=O)O)cc1` (stereo not drawn), the Potency was “inactive”.
With `O=C1Nc2ccccc2/C1=C/c1cccnc1` the Potency was inconclusive [inhibitor, single point].
With `O=C1c2[nH]nc(-c3ccccc3O)c2C(c2cccc(Cl)c2)N1CC1CCCO1` (stereo not drawn) the Potency was inconclusive [inhibitor, single point].
With `CCCOc1ccccc1C(=O)Nc1ccc(S(=O)(=O)N2CCN(C)CC2)cc1` the Potency was “inactive”.
For `CC(C)CN(c1ccccc1)S(=O)(=O)c1nnc(NC(=O)c2ccco2)s1`, the Potency was inconclusive [inhibitor, full curve, poor fit].
With `CCn1c(=NC(=O)CSC(C)=O)sc2cc(F)ccc21` the Potency was “inactive”.
In the case of `O=C(CCCC(=O)Nc1cccc(Br)c1)N/N=C/c1cc([N+](=O)[O-])ccc1O`, the Potency is reported as active: 10 µM.
For `O=C(NCc1cccc(C(F)(F)F)c1)c1ccc(=O)[nH]c1`, the Potency was inconclusive [activator, full curve, poor fit].
In the case of `CCCCCC(C)NC(=O)CN1C(=O)NC(C)(c2ccc3ccccc3c2)C1=O` (stereo not drawn), the Potency is reported as active: 12.6 µM.
With `CC(=O)N[C@H]1C[C@@H]1c1ccccc1` the Potency was “inactive”.
For `Cc1cc(C)c2c(c1)[C@@H]1C=CC[C@@H]1[C@H](c1ccc(S(=O)(=O)N3CCOCC3)cc1)N2`, the Potency was inconclusive [inhibitor, single point].
For `COc1ccc([N+](=O)[O-])cc1Nc1c2ccccc2nc2ccccc12`, the Potency was inconclusive [inhibitor, single point].
In the case of `S=c1[nH]c2ccccc2s1`, the Potency is reported as active: 5.62 µM and active: 10 µM.
For `Cc1ccc(S(=O)(=O)N2CCCC(C(=O)NCc3ccccn3)C2)cc1` (stereo not drawn), the Potency was “inactive”.
For `O=C(N/N=C/c1cc(O)ccc1Br)c1cccnc1`, the Potency was active: 1.26 µM.
With `Cc1c(C(=O)NC2CCCCC2C)oc2ccccc12` (stereo not drawn) the Potency was active: 5.62 µM.
For `C/C(=N\Nc1nccnc1Cl)c1c(F)c(F)c(F)c(F)c1F`, the Potency was inconclusive [inhibitor, single point].
For `COC(=O)C1=C(C)N(Cc2ccccc2)C(=NCc2cccc(C(F)(F)F)c2)N[C@H]1c1cccc(C(F)(F)F)c1`, the Potency was inconclusive [inhibitor, single point].
For `O=C(CSC(=S)N1CCOCC1)Nc1nc(=O)c2ccccc2s1`, the Potency was active: 10 µM.
For `O=C(NNC(=S)NC(=O)c1ccco1)c1ccc(NC(=O)c2ccccc2)cc1`, the Potency was “inactive”.
With `Cc1cccc(OCCNc2ccc(C(F)(F)F)cc2[N+](=O)[O-])c1` the Potency was inconclusive [activator, single point].
In the case of `O=C(Cc1ccc(Cl)cc1Cl)Nc1ccncc1`, the Potency is reported as active: 5.62 µM.
With `COc1ccccc1-c1cc(C(F)(F)F)nc(S(=O)(=O)CCCC(=O)O)n1` the Potency was inconclusive [inhibitor, single point].
With `COc1cc(-c2ccc(NC(C)=O)c(OC)c2)ccc1NC(C)=O` the Potency was “inactive”.
For `O=S(Cc1ccc(Cl)cc1)CC(O)(c1ccccc1)c1ccccc1` (stereo not drawn), the Potency was “inactive”.
In the case of `O=C(COc1ccc(Cl)cc1)Nc1nnc(-c2ccc3c(c2)CCCC3)o1`, the Potency is reported as inconclusive [inhibitor, single point].
